In the supplement of paper PMC10126150:
Values marked as one replicate rest on one cluster of the flow cell; about a third of the high ones do not repeat.

Test system: ATP
Experiment: switch fluorescence ratio, 500 uM ATP over buffer (Cy3 cluster intensity, sum of 5 cycles each) (fold (ratio)); higher = stronger signal-on switching upon ATP binding; sequences stand for … in TCGTCGGCAGCGTCAGATGTGTATAAGAGACAGTTTTTTTTTTTTTTTTTTTTTTTTT…TC
Conditions: aptamer strand: ATP DNA aptamer (quencher-CACCTGGGGGAGTATTGCGGAGGAAGG + anchor), 100 nM annealed; ATP concentration: 500 uM; one replicate
Procedure, shortened: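 Switching-strand clusters labelled with Cy3 on a modified Illumina MiSeq flow-cell were annealed to 100 nM quencher-labelled ATP aptamer, imaged in selection buffer, and re-imaged after 15 min with 500 uM ATP at 22 °C. This was done over five cycles with NaOH stripping and re-annealing in between. The fluorescence ratio is summed target-cycle over summed buffer-cycle Cy3 intensity per cluster, averaged per switch-domain sequence, excluding clusters outside 100-1000 RFU.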
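Further: ATP exposure 15 min at 22 °C before imaging.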

## TAGTATTGAC
  switch fluorescence ratio: 0.978

## ACAATTCCA
  switch fluorescence ratio: 1.02

## TCGTAGGTTA
  switch fluorescence ratio: 1.01

## GTTGTCCTT
  switch fluorescence ratio: 1

## AATGAGCCA
  switch fluorescence ratio: 1

## GGGAGCGTG
  switch fluorescence ratio: 0.789

## GTAAGCGCGA
  switch fluorescence ratio: 0.993

## TGTGACTTTA
  switch fluorescence ratio: 1.05

## AATGTAGGCC
  switch fluorescence ratio: 1.01

## ACCGGACCC
  switch fluorescence ratio: 1.4

## ATCTTAGATT
  switch fluorescence ratio: 1.03

## TTGGAGATGA
  switch fluorescence ratio: 1.04

## AAAACCTATT
  switch fluorescence ratio: 1.01

## ACTCGGACGA
  switch fluorescence ratio: 1.04

## AAGTGTGAAT
  switch fluorescence ratio: 0.985

## CCATAATGGG
  switch fluorescence ratio: 1.01

## ATTCAGTGC
  switch fluorescence ratio: 1.05

## CCATTTTGGC
  switch fluorescence ratio: 1.02

## GGCGAACGAG
  switch fluorescence ratio: 0.995

## GAACTTTGAA
  switch fluorescence ratio: 0.999

## GCACGGAGGT
  switch fluorescence ratio: 1.09

## GGTCCCGTGT
  switch fluorescence ratio: 1.01

## GGATGAGAGT
  switch fluorescence ratio: 0.97

## GCCGTGTTTG
  switch fluorescence ratio: 1.04

## CGTGCTGTTT
  switch fluorescence ratio: 1.68

## CACTGTATGT
  switch fluorescence ratio: 1.24

## TGTTGTTGAG
  switch fluorescence ratio: 0.987

## GTTGTTAACA
  switch fluorescence ratio: 1.01

## GTGCGGTCCT
  switch fluorescence ratio: 0.984

## TTTACAGTGA
  switch fluorescence ratio: 1.01

## TAGGTTAGGT
  switch fluorescence ratio: 1.06

## TATAGGGTTC
  switch fluorescence ratio: 0.971

## GGCACACGAA
  switch fluorescence ratio: 1.01

## TATCAGCTAC
  switch fluorescence ratio: 2.55

## CAGACTCATA
  switch fluorescence ratio: 1.04

## TCGGGCTGG
  switch fluorescence ratio: 0.965

## CATAGCAGAA
  switch fluorescence ratio: 1.11

## GTTTCATCTT
  switch fluorescence ratio: 1.04

## AGCCAAGGCT
  switch fluorescence ratio: 0.996

## AATTCATTCT
  switch fluorescence ratio: 1.02

## GCGAGGGTCA
  switch fluorescence ratio: 1.04

## GGGTCTATTA
  switch fluorescence ratio: 0.985

## ACTTTCGCAT
  switch fluorescence ratio: 1.68

## TAGTGACAGT
  switch fluorescence ratio: 1.03

## AGTCTAATGC
  switch fluorescence ratio: 0.87

## ATCTTTAGAG
  switch fluorescence ratio: 0.992

## AGTCAGTC
  switch fluorescence ratio: 1.04

## CAACCGATTT
  switch fluorescence ratio: 1.18

## ACCGACCAAT
  switch fluorescence ratio: 4.72

## GGCATAGTAA
  switch fluorescence ratio: 0.936

## GACTCACATA
  switch fluorescence ratio: 1.33

## TAGTTTT
  switch fluorescence ratio: 0.991

## GTCAGTACTG
  switch fluorescence ratio: 1.02

## TTGCTCCGGT
  switch fluorescence ratio: 1.01

## GGCACCGGAT
  switch fluorescence ratio: 1.02

## TATAGTTGCT
  switch fluorescence ratio: 0.965

## TGACTTATCG
  switch fluorescence ratio: 0.959

## GTCAACGGTA
  switch fluorescence ratio: 1.02

## TTGACTGAGA
  switch fluorescence ratio: 1.02

## TTTGATTACC
  switch fluorescence ratio: 0.986

## ATGACTAAAG
  switch fluorescence ratio: 0.975

## AATGTAAATC
  switch fluorescence ratio: 1.08

## ACGGTTACTG
  switch fluorescence ratio: 1.02

## ATTCGCGTTC
  switch fluorescence ratio: 1.27

## GTAAACATTT
  switch fluorescence ratio: 1.02

## GGTTAGTGGA
  switch fluorescence ratio: 0.96

## CGGAGAGCAC
  switch fluorescence ratio: 1.06

## GCTTGTGGGG
  switch fluorescence ratio: 0.974

## AAACATTCCC
  switch fluorescence ratio: 1.73

## CTAACTATTT
  switch fluorescence ratio: 1.05

## GGCCTTGCTG
  switch fluorescence ratio: 1.02

## TATTAATGAA
  switch fluorescence ratio: 1.01

## CCCAGCGTAT
  switch fluorescence ratio: 1.4

## AGTTGACTAG
  switch fluorescence ratio: 0.928

## TGCACGTTCC
  switch fluorescence ratio: 2

## ATGGTACGTG
  switch fluorescence ratio: 1.03

## TCATGATT
  switch fluorescence ratio: 0.991

## CGCGTTTTCT
  switch fluorescence ratio: 1.03

## GCCCACACA
  switch fluorescence ratio: 1.03

## CCATTGTCGG
  switch fluorescence ratio: 1.05

## TGGCCCGTAA
  switch fluorescence ratio: 1.09

## GCGAGGCGGC
  switch fluorescence ratio: 0.993

## TAGTCGAAAC
  switch fluorescence ratio: 1

## GGTCCAGTCA
  switch fluorescence ratio: 1.01

## GTATTAGTAT
  switch fluorescence ratio: 0.953

## AAATTATCAC
  switch fluorescence ratio: 1.03

## CTCGGCGTTG
  switch fluorescence ratio: 0.995

## GTCATGTACT
  switch fluorescence ratio: 1.05

## GGCCTCGTAA
  switch fluorescence ratio: 1.39

## ACTCACTTCG
  switch fluorescence ratio: 1.12

## TAAGTAAAGG
  switch fluorescence ratio: 1.01

## AGGATGAGGC
  switch fluorescence ratio: 0.938

## CTACTCGTCT
  switch fluorescence ratio: 1.02

## TTCATAGTAA
  switch fluorescence ratio: 1.05

## ATGTGCTTTC
  switch fluorescence ratio: 0.983

## TTTGCGACTC
  switch fluorescence ratio: 1.22

## GTAATGTGAC
  switch fluorescence ratio: 1.17

## AGCTAGGACT
  switch fluorescence ratio: 1.08

## CCTAAATAGG
  switch fluorescence ratio: 1

## AAAAATCTGT
  switch fluorescence ratio: 0.955

## ATGAGGCTGG
  switch fluorescence ratio: 0.995

## CTAGCTGATA
  switch fluorescence ratio: 0.932

## TACGTCTAGC
  switch fluorescence ratio: 1.04

## GTCGTGTCGC
  switch fluorescence ratio: 1.1

## TTTAAGTGC
  switch fluorescence ratio: 1.07

## GCTCCTTTTT
  switch fluorescence ratio: 0.986

## TAATCAATGC
  switch fluorescence ratio: 1.56

## CTAGTATG
  switch fluorescence ratio: 0.961

## GGTCCGGCTA
  switch fluorescence ratio: 0.984

## GAGGTTGCC
  switch fluorescence ratio: 0.95

## AGAGTTACTC
  switch fluorescence ratio: 1.04

## CACCATTAAG
  switch fluorescence ratio: 1.02

## TTCTTCGCGG
  switch fluorescence ratio: 1.08

## AAGCCACTGG
  switch fluorescence ratio: 1.01

## CAGCGAGAT
  switch fluorescence ratio: 1.07

## ATTGCCGCAA
  switch fluorescence ratio: 3.04

## CACTACGACC
  switch fluorescence ratio: 1.44

## CTGTGAAAAG
  switch fluorescence ratio: 1.01

## AACATCTGTT
  switch fluorescence ratio: 0.953

## CTCGTTCAGC
  switch fluorescence ratio: 1.02

## CTTGAACTCT
  switch fluorescence ratio: 1

## CGAGGGCGCA
  switch fluorescence ratio: 1.03

## GAAAGATTGA
  switch fluorescence ratio: 1

## AAGTGGGAAG
  switch fluorescence ratio: 0.975

## TTGTCTCACA
  switch fluorescence ratio: 0.989

## TCTCGTCGCG
  switch fluorescence ratio: 0.993

## CGCTCTCCGA
  switch fluorescence ratio: 1.14

## GGTCCTCCAA
  switch fluorescence ratio: 0.99

## ACGGGTATCC
  switch fluorescence ratio: 1.05

## TCCGTGATTA
  switch fluorescence ratio: 1.39

## GGCAACAGTG
  switch fluorescence ratio: 1.05

## CTCCCGTCGT
  switch fluorescence ratio: 1.09

## ACTTGAGAGC
  switch fluorescence ratio: 1.06

## GTACAATGAA
  switch fluorescence ratio: 0.976

## ACTAAGCCGT
  switch fluorescence ratio: 1.06

## GTTAAATTCG
  switch fluorescence ratio: 0.931

## AATCGTAACC
  switch fluorescence ratio: 1.04

## ACTGCTAACC
  switch fluorescence ratio: 1.13

## CCTCGACGCG
  switch fluorescence ratio: 1.2

## AGCGGACCAG
  switch fluorescence ratio: 0.988

## AGGCGTCTGC
  switch fluorescence ratio: 1

## GGGCCCACCA
  switch fluorescence ratio: 0.97

## CACAAATCGG
  switch fluorescence ratio: 1.02

## GAGTTCTTTT
  switch fluorescence ratio: 1

## AGCATCGCCG
  switch fluorescence ratio: 0.963

## GGCAGATAGG
  switch fluorescence ratio: 0.962

## GACGTTGTCG
  switch fluorescence ratio: 1.05

## CAGCGTGAAT
  switch fluorescence ratio: 1

## AGGAGATTT
  switch fluorescence ratio: 0.993

## ACGGAGAGCG
  switch fluorescence ratio: 0.984

## CTAAAAAATG
  switch fluorescence ratio: 1.04

## CGAAAAATTC
  switch fluorescence ratio: 2.08

## TCAATGCGGG
  switch fluorescence ratio: 1.01

## GGAGGCAGG
  switch fluorescence ratio: 1.09

## TCTCGGGGAA
  switch fluorescence ratio: 1.22

## CTTGCGCTGC
  switch fluorescence ratio: 1.47

## ATTGTGGACT
  switch fluorescence ratio: 1.02

## AGGCCGGTAC
  switch fluorescence ratio: 1.11
